Laboratory results from PubChem BioAssay AID651820 (National Center for Advancing Translational Sciences (NCATS), 2012).
The campaign covered roughly 340,000 compounds. About 12,000 (3.5%) were called active. Inconclusive results, whose numbers are uncertain, are shown with a selection of clear calls. Calls follow the shape of the dose curve; as a rule, active = well fitted inhibition curve with a large enough effect; inconclusive = small, poorly fitted or top-dose-only effect, or another doubt; inactive = no such curve, though single readings can be large or run the other way. Potencies of inconclusive entries are left out as doubtful fits.

test: qHTS Assay for Inhibitors of Hepatitis C Virus (HCV); details: Huh7.5.1 HCVcc-Cre (HCVcc is cell-culture hepatitis C virus) infection, luciferase reporter, 44 h; activity change, negative = inhibition: at 41.8 µM (top of the series) unless noted
Outline: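 Reporter virus HCVcc-Cre (~0.5 moi) infects cells exposed to compound; seeding density 1,000 cells/well with 4 h settling beforehand. Luminescence, 15 sec read, taken 44 h post-infection following a 15 min RT substrate incubation.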
% is scaled to controls: 0 for no effect and ±100 for the full control effect; potency is read from the fitted curve at half-maximal effect; tags tell the direction and shape of the fitted curve.

Row | SMILES | activity change, negative = inhibition | Potency
1 | O=C(NC1CCCc2c1cnn2-c1ccccc1F)c1ccccc1N1CCOCC1 (configuration not stated) | inactive: -7.29% | –
2 | Cc1ccc(Nc2nc(N)nc(CCl)n2)c(C)c1 | – | active: 0.501 µM
3 | CN(CC(=O)NC1CCCCC1)S(=O)(=O)c1cccc2nsnc12 | inactive: 9.43% | –
4 | CC(C)(C)NC(=O)NCc1cccnc1 | inactive: 5.78% | –
5 | O=C(Nc1cccc(F)c1)C1CCN(c2nnnn2-c2ccccc2)CC1 | inactive: -20.1% | –
6 | CN=C1S/C(=C\c2cc(C)n(-c3ccccc3F)c2C)C(=O)N1C | – | inconclusive [inhibitor, partial curve]
7 | O=C1N[C@@H](Cc2ccccc2)COC(=O)[C@@H](Cc2ccc(F)cc2)CC/C=C/C[C@@H]1CC(=O)N(CCO)Cc1ccccc1 | – | inconclusive [inhibitor, single point]
8 | CC(SCc1ccccc1)C(=O)N/N=C/c1cc2c(cc1Br)OCO2 (configuration not stated) | inactive: -26.2% | –
9 | COc1ccc(N2CCN(S(=O)(=O)CCNC(=O)C34CC5CC(CC(C5)C3)C4)CC2)cc1 | – | inconclusive [inhibitor, single point]
10 | CCOc1cc(C(=O)N/N=C/c2cn(-c3ccccc3)nc2-c2cc3ccccc3o2)cc(OCC)c1OCC | – | inconclusive [inhibitor, partial curve]
11 | Cc1ccccc1OCc1nnc(SCCN2CCCC2)n1-c1ccccc1 | – | inconclusive [inhibitor, full curve]
12 | COc1ccc(Cc2nc3ccc(S(=O)(=O)N4CCOCC4)cc3[nH]2)cc1 | – | inconclusive [inhibitor, single point]
13 | COc1ccc(CCNC(=O)c2cc3c(=O)n4cccc(C)c4nc3n(CCCN3CCOCC3)c2=N)cc1 | – | inconclusive [inhibitor, full curve]
14 | CC(Oc1ccc2c3c(c(=O)oc2c1)CCC3)C(=O)NC1CCN(Cc2ccccc2)CC1 (configuration not stated) | inactive: -15.2% | –
15 | CCOC(=O)C1(C(F)(F)F)N=C(C(F)(F)F)Nc2ccc(F)cc21 (configuration not stated) | inactive: 17.6% | –
16 | COc1ccc(C(O)c2ncc(C(F)(F)F)cc2Cl)cc1 (configuration not stated) | inactive: 2.09% | –
17 | CC[N+]1(CC)CC2=Cc3c(ccc4ccccc34)C(C)C2C1 (configuration not stated) | inactive: -8.23% | –
18 | CCOCCCNC(=S)N1C2CCC1CC(NC(=O)NC1CCCCC1)C2 (configuration not stated) | inactive: -19.8% | –
19 | Nc1c(C(=O)OCc2ccccc2)c2nc3ccccc3nc2n1Cc1cccs1 | – | inconclusive [inhibitor, single point]
20 | CCOC(=O)Cc1c(C)c2ccc(N(CC)CC)cc2oc1=O | – | active: 10 µM
21 | COc1cc(/C=N/n2c(SC)nnc(C(C)(C)C)c2=O)ccc1O | inactive: 2.79% | –
22 | O=C(Nc1ccc(F)cc1F)c1c(C(F)(F)F)ccnc1Oc1cccc(C(F)(F)F)c1 | inactive: -1.16% | –
23 | CCOc1ccc(OCCCC(=O)N2CCN(S(=O)(=O)c3ccc(Cl)cc3)CC2)cc1 | inactive: -14.5% | –
24 | Cc1ccc(-c2nsc3c(N4CCC(C(N)=O)CC4)ncnc23)cc1 | inactive: 15.6% | –

Row | SMILES | activity change, negative = inhibition | Potency
25 | O=C(c1ccco1)N1CCN(C(c2ccc(Cl)cc2)c2nnnn2CC2CCCO2)CC1 (configuration not stated) | – | inactive
26 | O=C1NC(=O)N(c2ccccc2)C(=O)/C1=C/c1ccc([N+](=O)[O-])s1 | – | inconclusive [inhibitor, single point]
27 | CC(=O)c1ccc(N/N=C(/C(N)=O)C2=NC(C)(C)Cc3ccccc32)cc1 | – | inconclusive [inhibitor, partial curve]
28 | Cc1cc(/C=N/NC(=O)c2cccc([N+](=O)[O-])c2)c(C)n1-c1ccccc1 | – | inconclusive [inhibitor, full curve]
29 | COc1ccccc1N1CCN(C(=O)COc2cc(C)cc3oc(=O)cc(C)c23)CC1 | – | active: 8.91 µM
30 | CC(=O)c1ccc2noc(-c3ccccc3)c2c1 | – | inconclusive [inhibitor, partial curve, poor fit]
31 | C[N+]1(C)CCC(OC(=O)C(O)(c2ccccc2)C2CCCC2)C1 (configuration not stated) | inactive: -4.42% | –
32 | CCOC(=O)c1sc(NC(=O)c2cccs2)cc1C | – | inconclusive [inhibitor, single point]
33 | Cc1c2ccncc2cc2c1[nH]c1ccccc12 | – | active: 6.31 µM
34 | CN1CCc2c(sc(NC(=O)C3CCCN3S(=O)(=O)c3ccc(Cl)s3)c2C(N)=O)C1 (configuration not stated) | inactive: -24.4% | –
35 | CCOC(=O)C(=CNc1ccc(Oc2cncc(Cl)c2)nc1)C(=O)OCC | – | inconclusive [inhibitor, single point]
36 | O=C1Nc2cc(C(=O)N3CCC(N4CCCCC4)CC3)ccc2S/C1=C\c1ccccc1 | – | inconclusive [inhibitor, full curve, poor fit]
37 | CC1(C)CSC(=NCCc2ccccc2)N1 | – | inconclusive [inhibitor, single point]
38 | Cc1cccc(C(=O)NC(=S)Nc2ccccc2C(F)(F)F)c1 | – | inconclusive [inhibitor, partial curve]
39 | CCn1ccnc1CN(C)Cc1cn(-c2ccc(C)cc2)nc1-c1ccc(F)cc1 | – | inconclusive [inhibitor, single point]
40 | CC(C)c1ccc(OCc2ccc(C(=O)N3CCCC3)o2)cc1 | – | inconclusive [inhibitor, full curve, poor fit]
41 | C=CCOc1ccccc1CN1CCCC(CCC(=O)N(C)CCc2ccccn2)C1 (configuration not stated) | inactive: 2.73% | –
42 | O=C(NCCc1ccc(Cl)cc1)c1ccc(OCC2CCCO2)cc1 (configuration not stated) | – | inconclusive [inhibitor, partial curve]
43 | CCCN(CCC)CCCNC(=O)c1cc2c(=O)n(C)c3ccccc3c2n1C | – | inconclusive [inhibitor, single point]
44 | CCc1noc(C)c1C(=O)OCC(=O)c1ccccc1OC | – | inconclusive [inhibitor, partial curve]
45 | Cc1ccc(-c2noc(CSc3nnc(Cc4ccccc4)n3-c3cccc(C)c3)n2)cc1 | – | inconclusive [inhibitor, single point]
46 | CC(=O)c1ccc(N2CCN(S(=O)(=O)c3ccc4c(c3)CC(C)N4C(C)=O)CC2)cc1 (configuration not stated) | – | active: 6.31 µM
47 | Fc1c(F)c(F)c(N/N=C/c2c[nH]c3ccccc23)c(F)c1F | – | inconclusive [inhibitor, single point]
48 | CN(C)CCCN(C(=O)c1ccc(Br)s1)c1nc2cc3c(cc2s1)OCO3 | – | inconclusive [inhibitor, single point]

Row | SMILES | activity change, negative = inhibition | Potency
49 | Cc1c(/C=N/NC(=O)CNc2ccccc2)c2ccccn2c1C(=O)c1ccncc1 | inactive: -20.4% | –
50 | CCCn1c(CCNc2nc(-c3ccc(OC)cc3)cs2)nc2ccccc21 | – | inconclusive [inhibitor, partial curve]
51 | COc1cc(NC(=O)Cc2cccs2)cc(OC)c1 | – | inconclusive [inhibitor, single point]
52 | COc1ccc(S(=O)(=O)Cc2ccc(C(=O)N3CCN(c4cccc(C)c4)C(C)C3)o2)cc1 (configuration not stated) | – | inconclusive [inhibitor, partial curve]
53 | CCOc1ccc(-n2c(SCc3cc(=O)oc4cc(C)c(C(C)C)cc34)nnc2-c2cccnc2)cc1 | – | inconclusive [inhibitor, partial curve, poor fit]
54 | COc1cccc(C(=O)Nc2cccc(-c3ccc(N4CCOCC4)nn3)c2)c1OC | – | inconclusive [inhibitor, partial curve]
55 | COC(=O)c1cc(C(=O)c2ccc(Cl)cc2)n2c(=O)/c(=C\N(C)C)sc12 | – | active: 2.82 µM
56 | Cc1ccc(N/N=C(\C#N)C(N)=S)cc1C | – | inconclusive [inhibitor, single point]
57 | COc1ccc(N(Cc2ccccc2)S(=O)(=O)c2cccc(C(=O)Nc3ncccc3C)c2)cc1 | – | inconclusive [inhibitor, single point]
58 | Cc1cc(C(=O)NC2CCCc3c2cnn3-c2cccc(C)c2C)c(C)o1 (configuration not stated) | – | active: 10 µM
59 | CCOC(=O)c1cccc(NC(=O)CSc2nnc(C3CCCCC3)n2C)c1 | – | inconclusive [inhibitor, single point]
60 | Cc1ccc(C)c(NC(=S)N/N=C2\CCc3ccccc32)c1 | – | active: 10 µM
61 | COc1cccc(C(=O)CSc2nc3cccnc3n2C)c1 | – | inconclusive [inhibitor, single point]
62 | O=C1C=C(c2ccc3ncccc3c2)C[C@@H](c2ccc(F)cc2)C1 | – | inconclusive [inhibitor, single point]
63 | COc1ccc(NS(=O)(=O)c2cc(OC)ccc2NC(=O)c2cc(C)oc2C)cc1 | – | active: 4.47 µM
64 | Cc1c(C(=O)NCCN2CCOCC2)oc2ccc(S(=O)(=O)N3CCCCCC3)cc12 | – | inactive
65 | CC(C)CCOc1ccc(C(=O)CCNC(C)C(=O)O)cc1 (configuration not stated) | inactive: 11.4% | –
66 | CCOc1cc(/C=C/C(=O)c2ccc(C)cc2)ccc1OCC(=O)N(C)C | – | inconclusive [inhibitor, single point]
67 | COc1ccc(C(=O)c2coc3ccc(O)c(CN4CCOCC4)c23)cc1 | – | inconclusive [inhibitor, single point]
68 | N#CCCN(C(=S)NC(=O)C1CCCCC1)c1ccccc1F | inactive: 5.94% | –
69 | Cc1nnc(SCC(=O)Nc2ccc([N+](=O)[O-])cc2)n1CC1CCCO1 (configuration not stated) | inactive: 16% | –
70 | COc1ccc(S(=O)(=O)N(Cc2ccccc2)Cc2nc3ccccc3c(=O)[nH]2)cc1 | – | inconclusive [inhibitor, single point]
71 | O=C(COC(=O)c1c2c(nc3ccccc13)CCCC2)c1cccs1 | – | inconclusive [inhibitor, partial curve]
72 | CS(=O)(=O)c1ncc(Cl)c(C(=O)Nc2ccc(N3CCOCC3)cc2)n1 | – | inconclusive [inhibitor, single point]
